# “And” between values parts separate entries of the source, which are not always exact repeats. Identical values can stand only once. In all, about 290,000 compounds went through this assay and about 2,100 (0.72%) were called active. The inconclusive results got no clear call from the source; some entries with a clear call stand among them for comparison. Calls come from the whole dose curve; as a rule, active = well fitted inhibition curve with a large enough effect; inconclusive = small, poorly fitted or top-dose-only effect, or effect the other way; inactive = flat fitted curve, though single readings scatter. Potencies of inconclusive entries are doubtful fits and often do not repeat.
# Target: Fructose-bisphosphate aldolase (Giardia intestinalis (strain ATCC 50803 / WB clone C6)) (UniProt A8B2U2)
# Assay: qHTS Assay for Inhibitors of Fructose-1,6-bisphosphate Aldolase from Giardia Lamblia; note: nearly all actives have a fitted effect of over 55% in size
# Conditions: purified Giardia FBPA; series mostly up to 59.6 µM
# Outline: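 Giardia FBPA (40 nM reagent) was preincubated 10 min at RT with compound (up to 57.5 uM final), then substrate plus GAPDH/TPI/NAD/arsenate coupling system with diaphorase/resazurin was added; resorufin fluorescence (525/598 nm) was read after 20 min.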
# Potency is the fitted concentration of half-maximal effect; tags give direction and shape of the fitted curve.
# Sequence of UniProt A8B2U2 (A8B2U2 whole entry, looked up): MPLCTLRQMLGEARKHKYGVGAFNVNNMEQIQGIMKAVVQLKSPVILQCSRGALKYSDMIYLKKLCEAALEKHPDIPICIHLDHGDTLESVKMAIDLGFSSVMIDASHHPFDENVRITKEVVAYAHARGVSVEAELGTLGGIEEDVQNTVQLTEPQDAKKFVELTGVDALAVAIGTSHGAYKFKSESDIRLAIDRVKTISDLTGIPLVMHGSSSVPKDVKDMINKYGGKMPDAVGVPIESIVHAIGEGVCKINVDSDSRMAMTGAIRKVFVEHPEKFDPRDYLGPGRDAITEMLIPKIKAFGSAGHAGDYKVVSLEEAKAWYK
row,Structure (SMILES),Potency
1,CCOC(=O)N1CCN(S(=O)(=O)c2ccc(C(=O)N(CCCN(C)C)c3nc4ccc(OC)cc4s3)cc2)CC1,inactive
2,CCOc1ccc(CNCCCSc2ncccn2)cc1,"inconclusive: 39.8 µM [inhibitor, partial curve]"
3,COC(=O)c1ccc(S(=O)(=O)N2CCCN(Cc3ccccc3)CC2)n1C,inactive
4,CCC1(C)Cc2c(C#N)c(N)n(-c3ccccc3)c(=O)c2CO1 (stereo unspecified),inactive
5,C=CCN1C(=S)N[C@@H]2CS(=O)(=O)C[C@@H]21,"inconclusive: 17.7 µM [inhibitor, partial curve]"
6,O=C(/C=C/c1cccc([N+](=O)[O-])c1)Nc1ccc(Cl)cn1,inactive
7,Cc1ccc([C@@H]2[C@@H]3C(=O)N(C)C(=O)[C@@H]3[C@]3(C)C(=O)N(Cc4ccc(-c5ccccc5)cc4)CC(=O)N23)o1,inactive
8,CN(Cc1ccccc1)Cc1c(O)ccc2ccccc12,"inconclusive: 28.2 µM [inhibitor, partial curve]"
9,Nc1c(C(=O)NCCCc2ccccc2)c2nc3ccccc3nc2n1Cc1cccs1,"inconclusive: 14.1 µM [inhibitor, partial curve]"
10,COc1ccccc1N1CCN(C2CCN(C3CCC(c4ccccc4)CC3)CC2)CC1 (stereo unspecified),"inconclusive: 9.98 µM [inhibitor, partial curve]"
11,CCOC(=O)Cc1csc(-n2sc3ccccc3c2=O)n1,"inconclusive: 9.98 µM [inhibitor, partial curve]"
12,CCN1CCc2c(C#N)c(N3CCOCC3)nc(NCc3ccccc3)c2C1,"inconclusive: 14.1 µM [inhibitor, partial curve]"
13,Cc1nc2c(O)cccc2cc1CO,active: 19.9 µM
14,OCc1ncc(-c2ccccc2)s1,inactive
15,Cc1ccc(S(=O)(=O)c2c(N)n(CCC(C)C)c3nc4ccccc4nc23)cc1,"inconclusive: 19.9 µM [inhibitor, single point]"
16,COC1=C(Nc2ccc(C)cc2)C(=O)c2ccccc2C1=O,"inconclusive: 11.2 µM [inhibitor, partial curve]"
17,CCOC(=O)c1sc(/S(C)=N\S(=O)(=O)c2cccc(Cl)c2)c2c1CCC=C2 (stereo unspecified),"inconclusive: 19.9 µM [inhibitor, partial curve]"
18,Cc1cccc(-c2nsc(SCC(=O)NCC3CCCO3)n2)c1 (stereo unspecified),inactive
19,Cc1cccc(C(=O)c2c(N)sc3c2CCCC3)c1,inactive
20,O=C(Nc1nnc(SCc2ccc(F)cc2)s1)c1ccccn1,"inconclusive: 5 µM [inhibitor, single point]"
21,O=C1CC(N2CCN(c3ccc(O)cc3)CC2)C(=O)N1c1ccc2c(c1)OCO2 (stereo unspecified),"inconclusive: 15.8 µM [inhibitor, single point]"
22,Cc1cccc(NCc2nc(SCC(=O)Nc3ccccc3Br)n[nH]2)c1,"inconclusive: 20 µM [inhibitor, single point]"
23,O=C(Cn1cc([N+](=O)[O-])cn1)NCc1ccco1,inactive

row,Structure (SMILES),Potency
1,O=C(NNS(=O)(=O)c1ccc([N+](=O)[O-])cc1)C(=O)Nc1cccc(C(=O)O)c1,"inconclusive: 12.6 µM [inhibitor, partial curve]"
2,CC1Cc2ccccc2N1Cc1cccc([N+](=O)[O-])c1 (stereo unspecified),inactive
3,O=C(c1ccco1)N1CCN(C(=O)N2c3ccccc3Sc3ccccc32)CC1,inactive
4,CN1C(=O)NC(c2ccccc2)C2=C1CN(c1cccc(C(F)(F)F)c1)C2=O (stereo unspecified),inactive
5,COc1ccc(N2C(=O)CC(N3CCC(O)(c4cccc(C(F)(F)F)c4)CC3)C2=O)cc1 (stereo unspecified),inactive
6,COCCn1c(SCC(=O)Nc2ccc3[nH]c(=O)[nH]c3c2)nc2ccccc2c1=O,"inconclusive: 22.3 µM [inhibitor, single point]"
7,O=C(Nc1ccc2nc(-c3ccco3)c(-c3ccco3)nc2c1)N1CCN(c2ccccn2)CC1,"inconclusive: 5 µM [inhibitor, partial curve]"
8,O=C(O)c1ccccc1-c1ccccc1C(=O)NCc1ccccc1Cl,"inconclusive: 25.1 µM [activator, partial curve]"
9,Cn1c(-c2sccc2OCc2cccc(C(F)(F)F)c2)n[nH]c1=S,"inconclusive: 15.8 µM [inhibitor, partial curve]"
10,Cn1c(=O)c(-c2cc(F)cc(F)c2)nc2cnc(Oc3ccccc3)nc21,inactive
11,CNC[C@H](O)c1ccc(O)c(O)c1,active: 11.2 µM and active: 17.7 µM
12,CC(C)C[C@@H](CC(=O)N[C@@H](CCC(=O)O)CC(=O)O)NC(=O)[C@@H]1CCCC[C@H]1NC(=O)C[C@H](CCCN)NC(=O)C[C@H](Cc1ccccc1)NC(=O)[C@@H]1CCCC[C@H]1N,inactive
13,c1ccc(N2CCN(Cc3ccnc4ccccc34)CC2)cc1,"inconclusive: 15.8 µM [inhibitor, partial curve]"
14,CCCNc1cc(=S)nc(N)[nH]1,"inconclusive: 5.61 µM [inhibitor, partial curve]"
15,COCCNC(=O)c1c(N)n(-c2cccc(C)c2)c2nc3ccccc3nc12,"inconclusive: 22.4 µM [inhibitor, partial curve, poor fit]"
16,c1ccc(COn2nnc3ccccc32)c(COn2nnc3ccccc32)c1,"inconclusive: 17.7 µM [inhibitor, single point]"
17,COc1ccc(NC(=S)Nc2ccc3nsnc3c2)cc1,"inconclusive: 0.561 µM [inhibitor, full curve]"
18,CCN(CC)c1ccc(C=Nc2cc(C)cc(C)c2)c(O)c1,"inconclusive: 11.2 µM [inhibitor, partial curve]"
19,c1ccc(CCNCCOc2ccccc2)cc1,"inconclusive: 31.6 µM [inhibitor, single point]"
20,COC(=O)Nc1nc2ccc(C(=O)c3cccs3)cc2[nH]1,inactive
21,COc1ccc(C(C)=O)cc1CN1CC=C(c2ccccc2)CC1,"inconclusive: 28.2 µM [inhibitor, partial curve]"
22,COCCCNC(=S)Nc1cccc2ncccc12,"inconclusive: 14.1 µM [inhibitor, partial curve]"
23,CC1CCN(Cc2c(C(=O)N/N=C/c3ccc(OC(C)C)cc3)nnn2-c2nonc2N)CC1,inactive

# Reference: PubChem BioAssay AID2451 (National Center for Advancing Translational Sciences (NCATS), 2010)
